Data on 42 molecules can be found in ChEMBL document CHEMBL4888484, “Replenishing the malaria drug discovery pipeline: Screening and hit evaluation of the MMV Hit Generation Library 1 (HGL1) against asexual blood stage Plasmodium falciparum ,using a nano luciferase reporter read-out” (2022).

In all, about 150,000 compounds went through this assay and about 540 (0.36%) showed an effect of 50% or more. Some of the results follow.

Usually % Inhibition stands for the change of the read-out against control, counted positive when it falls.

The test relates to Plasmodium falciparum. The experiment in a line: Primary screen in NF54 nanoGlo assay, in single point, at 2uM, 72h; a lower Z score goes with more inhibition. Format: functional, Erythrocyte. The following applies: timepoint 72 hour.
For the molecule `O=C(NCC(F)(F)C1(O)CCCCC1)c1ccoc1`, the “% Inhibition” value is listed as -17% and the Z score turned out to be 1.81.

As to `CCOC(=O)[C@@H](N)Cc1ccc(C)cc1`, the “% Inhibition” value came to 31% and the Z score is given as -3.46.

As for `COc1ccc(F)cc1CNS(=O)(=O)C[C@@H]1C[C@H]2COC[C@@H]2O1`, the “% Inhibition” value is -3% and the Z score is given as 0.46.

In the case of `O=S(=O)([C@H]1CCN(CCc2ccccc2F)C1)N1CCCC1`, the “% Inhibition” value is -11% and the Z score amounted to 1.13.

In the case of `O=c1oc2ccccc2n1CCN1CCN(c2nccc3ccccc23)CC1`, the “% Inhibition” value was -5% and the Z score came to 0.59.

For `COc1ccc(-c2ccccc2NC(=O)NC[C@H]2CCCCN2C)cc1`, the “% Inhibition” value came to 8% and the Z score is recorded as -1.07.

For `CCOc1cc(N2CC[C@H](c3cnccn3)C2)ncn1`, the “% Inhibition” value worked out at 3% and the Z score was -0.26.

`COc1ccc(CCc2n[nH]c(NC(=O)CCc3c(C)noc3C)n2)cc1OC`: the “% Inhibition” value is on record as 21% and the Z score is listed as -2.38.

Turning to `O=C(CCc1nc2ccccc2[nH]1)N1CCC(c2nc3ccccc3o2)CC1`, the “% Inhibition” value is given as -8% and the Z score is reported as 0.69.

For `CC(=O)NCC1=CCN(CC(=O)N[C@@H](C)c2ccc(C)cc2)CC1`, the “% Inhibition” value came to 3% and the Z score is reported as -0.39.

`O=C(CCCc1nnc2ccccn12)N1CCc2ccccc2C1`: the “% Inhibition” value was 28% and the Z score is on record as -3.21.

As for `CONC(=O)NCCc1csc(C)n1`, the “% Inhibition” value was -11% and the Z score is recorded as 1.11.

Regarding `Cc1ccc2ncc(CN3CCN(C)S3(=O)=O)cc2c1`, the “% Inhibition” value is -5% and the Z score is 0.76.

On to `CC(C)NC(=O)N(Cc1cc(-c2ccco2)on1)C(C)C`, for which the “% Inhibition” value was -1% and the Z score is listed as 0.13.

`CCCNC(=O)Nc1ccc(NC(=O)N2CCC[C@H](C(=O)NCC)C2)cc1`: the “% Inhibition” value is given as -20% and the Z score is 2.59.

On to `Cc1cc(NC(=O)NC2CCCC2)no1`, for which the “% Inhibition” value is listed as -37% and the Z score is 4.39.

With `COc1cccc(CNC(=O)C[C@H](C)CC2=Nc3ccccc3S(=O)(=O)N2)c1`, the “% Inhibition” value amounted to 2% and the Z score is listed as -0.21.

With `Cc1oc(-c2ccc3ccccc3c2)nc1CN1CC[C@H](O)[C@@H](O)C1`, the “% Inhibition” value was found to be 4% and the Z score is recorded as -0.59.

On to `Cc1ccccc1Oc1cc(NC(=O)c2nn3c(C(F)(F)F)cc(-c4ccccc4)nc3c2Br)cc(Oc2ccccc2C)c1`, for which the “% Inhibition” value is 0% and the Z score is given as 0.06.

Take `c1ccc(N2CCO[C@@H](CN3CCC(n4cncn4)CC3)C2)cc1`: the “% Inhibition” value is listed as -9% and the Z score is 1.47.

Take `COc1ccc(F)c(F)c1CN(C)Cc1cc(C2CC2)[nH]n1`: the “% Inhibition” value is recorded as -2% and the Z score turned out to be 0.37.

With `Cc1[nH]c2ccc(CNC(=O)[C@H]3CCCN(Cc4ccco4)C3)cc2c1C`, the “% Inhibition” value came to 1% and the Z score is -0.22.

In the case of `Cc1c(C#N)c(NC(=O)CN2CCCC2c2nc3ccccc3s2)n(CC2CCCO2)c1C` (centres undefined), the “% Inhibition” value is -13% and the Z score turned out to be 1.91.

With `CC(C)(C)OC(=O)N1CC2(CCCC2)[C@H]1C(=O)NCCCCO`, the “% Inhibition” value is -7% and the Z score is 0.88.

In the case of `O=C(NCCc1ccccc1)N1CC[C@H](Cc2nnc(C3CC3)[nH]2)C1`, the “% Inhibition” value is on record as -5% and the Z score worked out at 0.89.

With `C[C@H](NCc1csc(N(C)C)n1)c1ccc(N2CCCC2=O)cc1`, the “% Inhibition” value was found to be 4% and the Z score is reported as -0.54.

`COc1ccccc1CN1C=C(C(=O)NC[C@H]2CCCO2)C(C)=NS1(=O)=O`: the “% Inhibition” value is -1% and the Z score is recorded as 0.08.

As to `CCc1sc(C(=O)Nc2cccc(OCC(=O)N3CCCC3)c2)cc1C`, the “% Inhibition” value was -11% and the Z score was found to be 2.08.

`Cc1cccc(NC(=O)[C@@H]2COCC(=O)N2Cc2cccs2)c1`: the “% Inhibition” value is listed as -2% and the Z score was 0.23.

Turning to `O=C(Nc1cccn2cnnc12)NC1CCCCC1`, the “% Inhibition” value is -5% and the Z score worked out at 0.99.

On to `Nc1nnc(Cc2nc(C3CC3)nn2-c2ccccn2)s1`, for which the “% Inhibition” value is -1% and the Z score turned out to be 0.23.

`Cc1ccc(NC(=O)Cn2cnc3nc(N4CCC[C@H](C(=O)NC5CC5)C4)sc3c2=O)cc1`: the “% Inhibition” value is -31% and the Z score was 2.74.

As for `Cc1cccc(OCC(=O)Nc2nc3ccc(Cl)cc3o2)c1`, the “% Inhibition” value is -2% and the Z score was 0.41.

Consider `CCc1ncc(Cn2cccc(F)c2=O)o1`, for which the “% Inhibition” value amounted to 0% and the Z score was 0.04.

Take `COCC(=O)N[C@H]1CN(Cc2ccc(Cl)s2)C[C@@H]1C1CC1`: the “% Inhibition” value was 0% and the Z score is on record as 0.

Take `CCCCNC(=O)[C@H](C#N)c1nc(C)cc(C)n1`: the “% Inhibition” value is on record as 1% and the Z score is on record as -0.09.

Consider `Cc1ccc(CNC(=O)N2Cc3c(C)nn(-c4ccccc4)c3-n3cccc3[C@H]2c2ccc(F)cc2)cc1`, for which the “% Inhibition” value was determined as 1% and the Z score is listed as -0.22.

`O=C(O)[C@H]1CCCN1S(=O)(=O)c1ccc2c(c1)CCCC2`: the “% Inhibition” value was -2% and the Z score came to 0.33.

Consider `FC(F)n1ccnc1CN[C@@H]1CCC[C@H]1c1ccccc1`, for which the “% Inhibition” value was -3% and the Z score is recorded as 0.49.

`CCCN1CC[C@H](Nc2cnc3ccccc3n2)C1`: the “% Inhibition” value is given as -14% and the Z score amounted to 2.25.

Consider `O=C(Nc1cncc(Br)c1)c1cc(N2CCNC2=O)c(F)cc1F`, for which the “% Inhibition” value was -18% and the Z score was 2.68.

`Cc1ccc(-c2nc(CNC(=O)c3cccnc3)[nH]c2-c2ccccn2)cc1`: the “% Inhibition” value was 2% and the Z score is on record as -0.22.
